# Results reported in PubChem BioAssay AID493208 (National Center for Advancing Translational Sciences (NCATS), 2011).
# About 340 (0.77%) of roughly 44,000 compounds were called active. About 5% were inconclusive and are not listed. Calls come from the whole dose curve; as a rule, active = well fitted inhibition curve with a large enough effect; inconclusive = small, poorly fitted or top-dose-only effect; inactive = flat fitted curve, though single readings scatter. This is one part of the list.
# Assay: Acumen qHTS Assay for Inhibitors of the mTORC1 Signaling Pathway in MEF (Tsc2-/-, p53-/-) Cells: Sytravon; note: nearly all actives have a fitted effect of over 50% in size;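 for activity change, negative = inhibition: plate controls were DMSO for no effect and rapamycin for full effect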
# Conditions: phospho-rpS6 immunofluorescence/PI, 24 h; series mostly up to 38.3 µM; activity change, negative = inhibition: at the top concentration
# Method in brief: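 Cell-based qHTS: Tsc2-/- p53-/- MEF, 24 h cpd, 37 °C; fix/perm, anti-phospho-S6 Alexa-488 + PI; Acumen 488 nm scan; pS6/PI ratio, % positive cells; rapamycin 7.5 nM = inhibition ref; PI count = viability.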
# Potency is the fitted concentration of half-maximal effect.
SMILES,"activity change, negative = inhibition",Potency
Cc1ccccc1C(=O)Nc1ccccc1C(=O)OCc1cc(=O)n2ccsc2n1,inactive: -3.94%,
CN1C(=O)CC(=O)N(C)c2cc(S(=O)(=O)N(C)Cc3ccccc3)ccc21,inactive: -2.09%,
CCn1cc(C(=O)NCCc2ccc(C)cc2)c(=O)c2cc(S(=O)(=O)N(C)C)ccc21,inactive: 1.19%,
CCCCN(CCCC)CCNC(=O)c1cn(C)c2ccc(S(=O)(=O)N3CCOCC3)cc2c1=O,inactive: -10.6%,
Cc1c(Cl)cccc1NS(=O)(=O)c1ccc2[nH]cc(C(=O)NC3CCCC3)c(=O)c2c1,inactive: -0.331%,
Cc1ccc(S(=O)(=O)c2nc(-c3cccs3)oc2N2CCCCC2)cc1,inactive: -0.171%,
COc1ccc2c(c1)c1c(c(=O)n(-c3ccc(OC)c(OC)c3)c(=O)n1Cc1ccccc1C)n2C,inactive: -4.83%,
CC(=O)c1cccc(NS(=O)(=O)c2ccc3[nH]c4c(c3c2)CCCCCC4)c1,inactive: -6.13%,
Cc1ccc(-n2ncc(C(=O)NCCN3CCN(C)CC3)c2C2CCN(C(=O)OC(C)(C)C)CC2)c(C)c1,inactive: -0.675%,
COc1ccc(OC)c(S(=O)(=O)Nc2cc3c(cc2C)n(C)c(=O)c(=O)n3C)c1,inactive: -5.52%,
CN(Cc1ccccc1)C(=O)CN1C(=O)CSc2ccc(S(=O)(=O)N3CCOCC3)cc21,inactive: 3.82%,
COc1ccc(NC(=O)CCS(=O)(=O)c2nc(-c3cccs3)cc(C(F)(F)F)n2)cc1OC,,active: 13.1 µM
COc1ccc(N(C(=O)/C=C\C(=O)Nc2ccc(Cl)cc2)C(C(=O)NCc2ccco2)c2ccc(C)cc2)cc1 (configuration not stated),inactive: -0.549%,
O=C(c1noc2c1CCCCC2)N1CCN(c2ccc(Cl)cc2)CC1,inactive: 9.8%,
COc1ccccc1NC(=O)Cn1c(=O)n(Cc2ccc3c(c2)OCO3)c(=O)c2oc3ccccc3c21,inactive: -5.33%,
CCc1ccc(-c2cn3c(n2)sc2cc(C(=O)NCCc4ccc(OC)cc4OC)ccc23)cc1,inactive: -3.1%,
C#CC(C)(C)NS(=O)(=O)c1cc(-c2nnc(Nc3ccc(C)cc3)c3ccccc23)ccc1C,inactive: -5.03%,
Cc1ccc(NC(=O)CN(c2ccccc2)S(=O)(=O)N(C)C)cc1Cl,inactive: -8.57%,
Cc1ccc(NC(=O)NCc2ccc3c(c2)CCN3C(=O)c2ccccc2)c(Cl)c1,inactive: -0.393%,

SMILES,"activity change, negative = inhibition",Potency
NS(=O)(=O)c1ccc(CCNC(=O)CCCCCn2c(=O)[nH]c3ccccc3c2=O)cc1,inactive: -1.76%,
COc1ccc(NC(=O)c2cn(CC(C)C)c(=O)c3cc(OC)c(OC)cc23)cc1Cl,inactive: 3.32%,
Cc1ccc(NC(=O)c2nn(C)c3c2CS(=O)(=O)c2ccccc2-3)c(Cl)c1,inactive: 0.4%,
Oc1c(C(c2ccccc2)N2CCC3(CC2)OCCO3)sc2nc(-c3ccco3)nn12 (configuration not stated),inactive: -0.312%,
Cc1nc(N2CCOCC2)c2c(C(=O)NCc3cccc(Cl)c3)c(C)oc2n1,inactive: 7.12%,
CCOC(=O)Cc1ccc(NC(=O)Nc2cccc(OCc3cc(=O)n4cc(C)ccc4n3)c2)cc1,inactive: 3.4%,
COc1ccc(-c2nc3c(c(SCC(=O)Nc4ccc(C(=O)O)cc4)n2)Cc2ccccc2O3)cc1,inactive: -1.62%,
O=C(CCCCCn1c(=O)c2sccc2n(CC(=O)Nc2cccc(Cl)c2)c1=O)NCc1ccc2c(c1)OCO2,inactive: -12.2%,
CCc1cccc(NC(=O)CSc2ncc3c(n2)-c2ccc(Cl)cc2N(Cc2ccccc2)S3(=O)=O)c1,inactive: 0%,
COc1cccc(C(=O)NC2(C(F)(F)F)C(=O)Nc3c2c(=O)[nH]c(=O)n3-c2ccc(C)cc2)c1 (configuration not stated),inactive: 2.02%,
CCc1c(C)sc2c1CCN(C(=O)Nc1cc(OC)c(OC)c(OC)c1)C2c1ccccc1 (configuration not stated),inactive: 12.4%,
CCCCN(C)CCNC(=O)c1ccc2c(=O)n(CCc3ccccc3)c(=O)[nH]c2c1,inactive: -16.3%,
CCc1ccc(NC(=O)C(NS(=O)(=O)c2cccs2)C(C)C)cc1 (configuration not stated),inactive: -18.8%,
Cn1c(=O)c2c(-c3ccccc3)n3c(c2n(C)c1=O)C(c1ccccc1[N+](=O)[O-])Nc1ccccc1-3 (configuration not stated),inactive: 1.27%,
Cn1c(=O)c2c(c3ccccc31)OC(=O)CC2c1ccc(C(F)(F)F)cc1 (configuration not stated),inactive: 4.44%,
O=C(Nc1ccc2oc(-c3cccc4c(Br)cccc34)nc2c1)c1ccc(F)cc1,inactive: -0.774%,
CCOC(=O)c1oc2ccc(S(=O)(=O)n3nc(-c4ccccc4OC)cc3N)cc2c1C,inactive: 2.8%,
O=C(COC(=O)c1cc(-c2cccs2)nc2ccccc12)c1ccccc1,inactive: 0.538%,
CCCN(CCC)CCCNC(=O)Cn1cnc2sc(C)c(S(=O)(=O)N3CCCCC3)c2c1=O,inactive: -1.46%,

SMILES,"activity change, negative = inhibition",Potency
CCCN(Cc1cccs1)C(=O)Nc1cc(Cl)c(OC)cc1OC,inactive: -11.1%,
O=C(c1ccc2c(c1)N(Cc1ccccc1F)C(=O)c1ccccc1S2(=O)=O)N1CCOCC1,inactive: 3.62%,
Cc1ccc(-c2nc3nc(C)cc(N4CCN(c5cc(Cl)ccc5C)CC4)n3n2)cc1,inactive: -7.42%,
COc1ccc(-c2cc(C(=O)Oc3ccccc3)c3cc(C)ccc3n2)cc1,inactive: 5.7%,
CCn1c(=O)n(-c2ccc(C)c(F)c2)c(=O)c2sc3ccccc3c21,inactive: 3.06%,
COc1cccc(-n2c(SCC(=O)Nc3cc(C)ccc3C)nc3c(oc4ccccc43)c2=O)c1,inactive: -3.34%,
CCOCCCNC(=O)c1ccc2nc(CCc3ccccc3)oc2c1,inactive: -0.44%,
COc1ccc(C2=NC3(CCCCC3)N(CC(=O)Nc3ccc(C(C)C)cc3)C2=O)cc1,inactive: -3.15%,
COc1cccc(CN2CCc3nc(Nc4ccc5c(c4)OCCO5)ncc3C2)c1,inactive: 21.1%,
Cc1ccc2nc(N(Cc3cccnc3)C(=O)Cc3ccccc3)sc2c1,inactive: -4.1%,
CCOC(=O)c1ccccc1NC(=O)Cn1ncc2c([nH]c3ccccc32)c1=O,inactive: -4.45%,
COc1cccc(C2CC(=O)Nc3cc4c(cc32)OCCO4)c1OC (configuration not stated),,active: 14.7 µM
Cc1ccccc1Cn1c(SCc2ccc(C(=O)NC(C)c3ccccc3)cc2)nc2ccncc21 (configuration not stated),inactive: 0.527%,
O=C(NCCc1cccs1)c1ccc(Cn2c(SCc3ccc(F)cc3)nc3cccnc32)cc1,inactive: -1.37%,
Fc1ccc(NCc2cccn2-c2nnc(N3CCOCC3)s2)cc1,inactive: -0.928%,
CC1CCN(c2ncnc3c2cnn3-c2ccc(F)cc2)CC1,inactive: 9.09%,
CCc1ccc(-n2c(=O)c3c4c(sc3n(CC(=O)NCCCOC)c2=O)CCCC4)cc1,inactive: -12.3%,
COc1cccc(NC(=O)c2sc3nc(C)c(C(=O)Nc4ccc(C)cc4C)c(-c4ccccc4Cl)c3c2N)c1,inactive: -14.8%,
CCc1ccc(-c2nc(CN3CCC(C(=O)NCCc4ccc(Cl)cc4)CC3)c(C)o2)cc1,inactive: -3.71%,
